# Values joined by “and” are separate entries in the source; they are usually repeats but may differ in a detail not shown here. Equal entries are not always repeated. In all, about 310,000 compounds went through this assay and about 11,000 (3.5%) were called active. Inconclusive means that the source gave no clear call. Such entries were picked first, then a sample of the others. The call rests on the fitted dose curve; in most records, active means well fitted inhibition curve with a large enough effect; inconclusive means small, poorly fitted or top-dose-only effect, or effect the other way; inactive means flat fitted curve, though single readings scatter. Potencies of inconclusive entries are doubtful fits and often do not repeat.
# Assay: VP16 counterscreen qHTS for inhibitors of ROR gamma transcriptional activity;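 further: Gal4-VP16 expression switched on by copper sulfate through the metallothionein promoter; nearly all actives have a fitted effect of over 50% in size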
# Settings: Drosophila S2 Gal4-VP16 UAS-luciferase, luminescence, 20 h; series mostly up to 53.6 µM
# Potency means the concentration at half of the fitted maximal effect; tags describe the fitted curve by direction and shape.
row,SMILES,Potency
1,Cc1cc(C)c2c(=O)n(CC(=O)NCCCN3CCOCC3)sc2n1,active: 5.01 µM
2,O=C(Nc1ccncc1)C1COc2ccccc2O1 (stereo not given),"inconclusive: 35.5 µM [inhibitor, single point]"
3,COc1ccc(C2=NC(c3ccccc3)CO2)cc1 (stereo not given),active: 12.6 µM
4,O=C(O)c1cc(O)c2c(c1)C(=O)c1cccc(O)c1C2=O,"inactive and inconclusive: 35.5 µM [inhibitor, single point]"
5,O=C1C=CC(=O)N1c1ccc(OC(F)F)cc1,active: 4.47 µM
6,O=C(OCC(=O)N1CCCC1=O)C1CCN(S(=O)(=O)c2c(Cl)cccc2Cl)CC1,"inconclusive: 1.58 µM [inhibitor, partial curve, poor fit]"
7,CCN(CC)CCOC(=O)c1ccc(Cl)cc1Cl,"inconclusive: 20 µM [activator, single point]"
8,CCCn1nnnc1NC(=O)COc1ccc(CC)cc1,active: 11.2 µM
9,CC(O)/C=C/c1ccc2ccccc2n1 (stereo not given),inactive
10,CC(NC(=O)c1ccccc1)c1nnc(SCC(=O)NC2CCCC2)n1C (stereo not given),inactive
11,CCn1c(-c2ccc3ncccc3c2)n[nH]c1=S,"inconclusive: 35.5 µM [inhibitor, single point]"
12,CCCc1cc(C(=O)Nc2sc(C)c(CC)c2C#N)no1,"inconclusive: 35.5 µM [inhibitor, single point]"
13,CCC(C)Nc1nc(C)nc2c1oc1ccccc12 (stereo not given),"inconclusive: 35.5 µM [inhibitor, single point]"
14,COc1ccc(CN(C(=O)c2snc(C(N)=O)c2N)C(C(=O)NC2CCCC2)c2ccc(OC)c(OC)c2)cc1 (stereo not given),inactive
15,O=C(Nc1ncc([N+](=O)[O-])s1)c1cccc([N+](=O)[O-])c1,"inconclusive: 2.51 µM [inhibitor, partial curve]"
16,CC(C)CCN(C(=S)Nc1cccc(C(F)(F)F)c1)C(C)c1ccccn1 (stereo not given),"inconclusive: 35.5 µM [inhibitor, single point]"
17,CC(C)CCNC(=O)c1ccc2c(c1)ncn2C1CCCCC1,"inconclusive: 35.5 µM [inhibitor, single point]"
18,Cc1cccc(-n2c(N)c(C(=O)NCCN3CCOCC3)c3nc4ccccc4nc32)c1,inactive
19,COC(=O)C1=C(C)N(Cc2ccccc2)C(=NCCc2c[nH]c3ccccc23)N[C@H]1c1ccccc1,inactive
20,N#CC(C#N)=C1C=CC=CN1/C(=C\c1ccco1)C(=O)c1ccc(Br)cc1,active: 1.26 µM
21,CCCNC(=O)c1nnsc1S(=O)c1ccc(Cl)cc1 (stereo not given),active: 3.98 µM
22,CCN1CCCC(Sc2nc3c([nH]2)c(=S)n(C)c(=O)n3C)C1 (stereo not given),active: 6.31 µM
23,Cn1nccc1C(=O)NC(=S)Nc1sc2c(c1C#N)CCCCC2,inactive
24,Cc1c(C(=O)N2CCCCCC2)c(S(=O)(=O)Nc2ccccc2F)c(C)n1C,"inconclusive: 1.58 µM [inhibitor, partial curve]"
25,O=C(COc1ccccc1)NC(=S)Nc1cccc2cc(O)ccc12,"inconclusive: 12.6 µM [inhibitor, partial curve]"

row,SMILES,Potency
1,CN(Cc1cnccn1)Cc1cn(Cc2ccccc2)nc1-c1ccc2c(c1)OCO2,inactive
2,FC(F)(F)c1cccc(NC(=S)NC2CCCC2)c1,active: 8.91 µM
3,COC(=O)c1c(/N=C/N(C)C)sc2c1CCN(c1ncc(C(F)(F)F)cc1Cl)C2,inactive
4,COc1ccc(CCn2c(-c3ccc(Cl)cc3)n[nH]c2=S)cc1OC,"inconclusive: 35.5 µM [inhibitor, single point]"
5,O=C(Cn1ncc2c([nH]c3ccccc32)c1=O)N1CCN(c2ccccn2)CC1,inactive
6,O=C(Nc1cccc(F)c1)N1CCCC2(CCN(C(=O)c3ccncc3)CC2)C1,inactive
7,Cc1onc(-c2ccccc2Cl)c1C(=O)NC(=S)Nc1ccccc1F,"inconclusive: 6.31 µM [inhibitor, single point]"
8,COc1ccc(OC)c(N/C(=N/C(=S)Nc2ccccc2)Nc2nc(C)cc(C)n2)c1,active: 0.708 µM
9,Cc1cccc(Nc2nc(-c3sc(C)nc3C)cs2)c1,"inconclusive: 22.4 µM [inhibitor, single point]"
10,O=C(O)Cc1ccc(NC(=O)c2cnccn2)cc1,"inconclusive: 11.2 µM [inhibitor, partial curve]"
11,CCCC[C@H]1CCCO[C@@](C(=O)NCc2ccccc2)(C(F)(F)F)C1,inactive
12,COC(=O)c1sc(N/N=C/c2ccc(C(C)C)cc2)nc1C,"inconclusive: 14.1 µM [inhibitor, single point]"
13,COc1cccc(/C=N/NC(=S)Nc2cccnc2)c1,active: 3.16 µM
14,COc1cc(CC2COC(=O)C2(O)Cc2ccc(O)c(OC)c2)ccc1O (stereo not given),active: 7.08 µM
15,COc1ccc(CN2CCN(C(C)C)C(CCO)C2)cc1Cn1cccn1 (stereo not given),inactive
16,COc1ccc(-n2cc(CNC3CCOCC3)c(-c3cccc(F)c3)n2)cc1,"inconclusive: 35.5 µM [inhibitor, single point]"
17,CCCCC(=O)O[C@H]1CC[C@H]2[C@@H]3CCc4cc(O)ccc4[C@H]3CC[C@]12C,"inconclusive: 28.2 µM [inhibitor, single point]"
18,COC(=O)c1cc(CNC(=O)c2ccccc2Cl)ccc1OC,inactive
19,COc1ccc(-c2ncncc2-c2ccc(Cl)cc2)c(O)c1,inactive
20,COCCOC(=O)c1[nH]c2c(c1C)C(=O)CC(c1ccc(OC)c(OC)c1)C2 (stereo not given),inactive
21,Cc1cccc(NC(=O)CNC(=O)COc2ccc(C(=O)c3ccc(F)cc3)cc2)c1C,inactive
22,COc1ccc(-c2nnc(-c3ccc(C)cc3)o2)cc1,"inconclusive: 10 µM [inhibitor, partial curve, poor fit]"
23,O=C(c1ccc(F)cc1F)C1CCN(c2ccc([N+](=O)[O-])cn2)CC1,"inconclusive: 35.5 µM [inhibitor, single point]"
24,O=[N+]([O-])c1ccc(NC(=S)N2CCN(c3ccccn3)CC2)cc1,"inconclusive: 35.5 µM [inhibitor, single point]"
25,O=C1/C(=C\c2cccs2)Sc2ccc3ccccc3c21,"inconclusive: 25.1 µM [inhibitor, single point]"

row,SMILES,Potency
1,CCOC(=O)COc1ccc(/C=C/[N+](=O)[O-])c(OCC(=O)OCC)c1,"inconclusive: 35.5 µM [inhibitor, single point]"
2,NS(=O)(=O)c1ccc(N2N=C(c3ccccc3)CC2c2ccccc2)cc1 (stereo not given),"inconclusive: 20 µM [inhibitor, single point]"
3,COc1cc(NC(=O)C2CC(c3c(F)cccc3Cl)=NO2)cc(OC)c1OC (stereo not given),"inconclusive: 25.1 µM [inhibitor, single point]"
4,CC(=O)c1ccc(NC(=S)NNC(=O)c2ccncc2)cc1,"inconclusive: 35.5 µM [inhibitor, single point]"
5,CN1CCC2(CC1)N=C(c1ccc(F)cc1)C(=S)N2C(=O)c1ccc(C(C)(C)C)cc1,"inconclusive: 35.5 µM [inhibitor, single point]"
6,O=C(NNC(=O)c1cc2ccccc2oc1=O)c1ccccc1[N+](=O)[O-],"inconclusive: 35.5 µM [activator, single point]"
7,CCOC(=O)CSC1=C(C#N)C(c2ccc(F)cc2)C(C(C)=O)=C(C)N1 (stereo not given),"inconclusive: 35.5 µM [inhibitor, single point]"
8,COc1ccc(NC2CCCN(C(=O)c3cccc(C(F)(F)F)c3)C2)cc1OC (stereo not given),"inconclusive: 12.6 µM [inhibitor, single point]"
9,C[C@@H](NC(=O)c1nc[nH]c1C(=O)NCC(=O)OCc1ccccc1)c1ccccc1,"inconclusive: 22.4 µM [inhibitor, single point]"
10,COc1nc(NCc2ccco2)nc(NC2CCCCC2)n1,"inconclusive: 12.6 µM [activator, single point]"
11,O=C(COC(=O)c1ccccc1OCC(=O)Nc1ccc(Br)cc1)Nc1ccccc1,"inconclusive: 3.98 µM [inhibitor, single point]"
12,CCCN1CCN(CCCNC(=O)c2cc3c(=O)[nH]c4ccc(C)cc4c3s2)CC1,"inconclusive: 10 µM [inhibitor, partial curve]"
13,COc1nc(Nc2nc3ccccc3c(=O)[nH]2)nc2ccc(C)cc12,active: 5.01 µM
14,CCOC(=O)c1[nH]nc(-c2cc(CC)c(O)cc2O)c1-c1cscn1,active: 12.6 µM
15,Cn1ncc(Br)c1C(=O)NC1CCCCC1,inactive
16,COc1cccc2c1OCC(CN1CCN(Cc3ccccc3)C(CCO)C1)=C2 (stereo not given),inactive
17,Cn1c(=O)[nH]c(=O)c2c1nc(Sc1nc3ccccc3s1)n2Cc1ccccc1,"inconclusive: 35.5 µM [inhibitor, single point]"
18,CCOc1ccc(NC(=S)NC(C)c2cccs2)cc1 (stereo not given),active: 5.01 µM
19,CC(=O)c1ccc2c(ccc3ccccc32)c1,"inconclusive: 28.2 µM [inhibitor, single point]"
20,O=C(Cc1ccc(Cl)cc1)Oc1cccc2cccnc12,active: 3.98 µM
21,O=C(c1cc(-c2cccc(Cl)c2)nc2ccccc12)N1CCN(c2ccccn2)CC1,"inconclusive: 17.8 µM [inhibitor, single point]"
22,Cc1ccc(N/C=C/C(=O)c2ccco2)c(O)c1,inactive
23,Cc1cccc(/C=C/c2nc3ccccc3c(=O)n2Cc2ccccc2)c1,inactive
24,c1ccc2sc(SSc3nc4ccccc4s3)nc2c1,"inconclusive: 25.1 µM [inhibitor, single point]"
25,CCCn1c(=S)[nH]c2cc(C(=O)N3CCN(c4ccccc4OC)CC3)ccc2c1=O,"inconclusive: 4.47 µM [inhibitor, single point]"

# Source: PubChem BioAssay AID2546 (National Center for Advancing Translational Sciences (NCATS), 2010)
